Measured values taken from patent publication US20260217864A1 (JANUX THERAPEUTICS, published 2026).
Read-outs that look alike come from different tables or passages of the source.

Experiments:
Assay in all cases: cell-based or functional assay
[1] = molecular target: T1, six-transmembrane epithelial antigen of the prostate-1 (STEAP-1) (UniProt Q9UHE8 1-339, limits assumed)
[2] = molecular target: T1, six-transmembrane epithelial antigen of …; remark: listed apart in the source
[3] = molecular target: T1, six-transmembrane epithelial antigen of …; remark: listed apart in the source
[4] = molecular target: T1, six-transmembrane epithelial antigen of …; remark: listed apart in the source
[5] = molecular target: T1, six-transmembrane epithelial antigen of …; remark: listed apart in the source
[6] = molecular target: T1, six-transmembrane epithelial antigen of …; remark: listed apart in the source

T1 sequence (Q9UHE8 whole entry): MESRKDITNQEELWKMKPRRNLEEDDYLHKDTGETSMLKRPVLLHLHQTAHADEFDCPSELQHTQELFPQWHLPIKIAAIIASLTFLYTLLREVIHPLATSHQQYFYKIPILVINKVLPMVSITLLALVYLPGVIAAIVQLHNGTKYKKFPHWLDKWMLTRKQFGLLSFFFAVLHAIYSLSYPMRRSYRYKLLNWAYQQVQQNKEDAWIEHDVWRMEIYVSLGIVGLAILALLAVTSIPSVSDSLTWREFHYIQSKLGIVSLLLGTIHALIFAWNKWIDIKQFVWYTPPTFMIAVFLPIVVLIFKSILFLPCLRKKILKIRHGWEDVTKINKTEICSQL

B1: TCE-3 (bispecific antibody)
light: DIVMTQSPDSLAVSLGERATINCKSSQSLLYRSNQKNYLAWYQQKPGQPPKLLIYWASTRESGVPDRFSGSGSGTDFTLTISSLQAEDVAVYYCQQYYNYPRTFGQGTKVEIKRTVAAPSVFIFPPSDEQLKSGTASVVCLLNNFYPREAKVQWKVDNALQSGNSQESVTEQDSKDSTYSLSSTLTLSKADYEKHKVYACEVTHQGLSSPVTKSFNRGEC
heavy: not shown
IC50 (pM), LNCaP tumor cell killing in the presence of CD8+ T cells [1]: 1670 pM | IC50 (pM), VCaP tumor cell killing in the presence of CD8+ T cells [2]: > 10000 pM | IC50 (pM), 22Rv1 tumor cell killing in the presence of CD8+ T cells [3]: > 10000 pM | Cell line cytotoxicity EC50 (pM), 22RV1 [4]: > 10000 pM | Cell line cytotoxicity EC50 (pM), IM-95 [4]: 639 pM | Cell line cytotoxicity EC50 (pM), LNCaP [4]: 1340 pM | Cell line cytotoxicity EC50 (pM), VCaP [4]: > 10000 pM

B2: TCE-27 (bispecific antibody)
light: B1 light
heavy: not shown
Cell line cytotoxicity EC50 (pM), IM-95 [5]: 82.7 pM | Cell line cytotoxicity EC50 (pM), LNCaP [5]: 752 pM

B3: TCE-25 (bispecific antibody)
light: DIQMTQSPSSLSASVGDRVTITCKSSQSLLYRSNQKNYLAWYQQKPGKAPKLLIYWASTRESGVPSRFSGSGSGTDFTLTISSLQPEDFATYYCQQYYNYPRTFGQGTKVEIKRTVAAPSVFIFPPSDEQLKSGTASVVCLLNNFYPREAKVQWKVDNALQSGNSQESVTEQDSKDSTYSLSSTLTLSKADYEKHKVYACEVTHQGLSSPVTKSFNRGEC
heavy: not shown
Cell line cytotoxicity EC50 (pM), 22RV1 [5]: 1990 pM | Cell line cytotoxicity EC50 (pM), A673 [5]: 116 pM | Cell line cytotoxicity EC50 (pM), C4-2B [5]: 1200 pM | Cell line cytotoxicity EC50 (pM), IM-95 [5]: 49.5 pM | Cell line cytotoxicity EC50 (pM), LNCaP [5]: 320 pM | Cell line cytotoxicity EC50 (pM), OE33 [5]: 655 pM | Cell line cytotoxicity EC50 (pM), VCaP [5]: 2280 pM

B4: TCE-53 (bispecific antibody)
light: B3 light
heavy: not shown
EC50/pM, LNCaP tumor cell killing [6]: 1010 pM | Cell line cytotoxicity EC50 (pM), LNCaP [4]: 1010 pM

B5: TCE-70 (bispecific antibody)
light: B3 light
chain: not shown
heavy: not shown
Cell line cytotoxicity EC50 (pM), 22RV1 [4]: 916 pM | Cell line cytotoxicity EC50 (pM), IM-95 [4]: 31.8 pM | Cell line cytotoxicity EC50 (pM), LNCaP [4]: 231 pM

B6: TCE-57 (bispecific antibody)
light: B3 light
heavy: not shown
EC50/pM, LNCaP tumor cell killing [6]: 45 pM | Cell line cytotoxicity EC50 (pM), 22RV1 [4]: 295 pM | Cell line cytotoxicity EC50 (pM), LNCaP [4]: 45.2 pM
